Some of the results follow.
Experiments:
Assay in all cases: glycan array binding signal (z-score within array); higher = stronger binding
Conditions in all cases: glycan notation: IUPAC condensed, linker removed
[1] = target: Fuc(a1-2)Gal
Method in brief: (§1)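 From the Consortium for Functional Glycomics database, 3228 arrays were curated, keeping only those whose protein sequence was available. Binding is given as a within-array Z-score averaged across arrays sharing a protein sequence and across linkers. Negative Z-scores can be read as non-binding.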

[2] = target: Fuc(a1-2)Gal(b1-3)GalNAc
Method in brief: as §1

[3] = target: Fuc(a1-2)Gal(b1-3)GalNAc(a1-3)[Fuc(a1-2)]Gal(b1-4)Glc
Method in brief: as §1

[4] = target: Fuc(a1-2)Gal(b1-3)GalNAc(a1-3)[Fuc(a1-2)]Gal(b1-4)GlcNAc
Method in brief: as §1

[5] = target: Fuc(a1-2)Gal(b1-3)GalNAc(b1-3)Gal
Method in brief: as §1

[6] = target: Fuc(a1-2)Gal(b1-3)GalNAc(b1-3)Gal(a1-4)Gal(b1-4)Glc
Method in brief: as §1

[7] = target: Fuc(a1-2)Gal(b1-3)GalNAc(b1-4)[Neu5Ac(a2-3)]Gal(b1-4)Glc
Method in brief: as §1

[8] = target: Fuc(a1-2)Gal(b1-3)GlcNAc
Method in brief: as §1

[9] = target: Fuc(a1-2)Gal(b1-3)GlcNAc(b1-2)Man(a1-3)[Fuc(a1-2)Gal(b1-3)GlcNAc(b1-2)Man(a1-6)]Man(b1-4)GlcNAc(b1-4)GlcNAc
Method in brief: as §1

[10] = target: Fuc(a1-2)Gal(b1-3)GlcNAc(b1-2)Man(a1-3)[Fuc(a1-2)Gal(b1-3)GlcNAc(b1-2)Man(a1-6)]Man(b1-4)GlcNAc(b1-4)[Fuc(a1-6)]GlcNAc
Method in brief: as §1

[11] = target: Fuc(a1-2)Gal(b1-3)GlcNAc(b1-3)Gal(b1-4)Glc
Method in brief: as §1

[12] = target: Fuc(a1-2)Gal(b1-3)GlcNAc(b1-3)GalNAc
Method in brief: as §1

[13] = target: Fuc(a1-2)Gal(b1-3)GlcNAc(b1-3)[Fuc(a1-3)[Gal(b1-4)]GlcNAc(b1-6)]Gal(b1-4)Glc
Method in brief: as §1

[14] = target: Fuc(a1-2)Gal(b1-3)GlcNAc(b1-3)[Gal(b1-4)GlcNAc(b1-6)]Gal(b1-4)Glc
Method in brief: as §1

[15] = target: Fuc(a1-2)Gal(b1-3)GlcNAc(b1-3)[Neu5Ac(a2-6)Gal(b1-4)GlcNAc(b1-6)]Gal(b1-4)Glc
Method in brief: as §1

[16] = target: Fuc(a1-2)Gal(b1-3)[Fuc(a1-4)]GlcNAc
Method in brief: as §1

[17] = target: Fuc(a1-2)Gal(b1-3)[Fuc(a1-4)]GlcNAc(b1-2)Man(a1-3)[Fuc(a1-2)Gal(b1-3)[Fuc(a1-4)]GlcNAc(b1-2)Man(a1-6)]Man(b1-4)GlcNAc(b1-4)GlcNAc
Method in brief: as §1

[18] = target: Fuc(a1-2)Gal(b1-3)[Fuc(a1-4)]GlcNAc(b1-3)[Fuc(a1-3)[Gal(b1-4)]GlcNAc(b1-6)]Gal(b1-4)Glc
Method in brief: as §1

[19] = target: Fuc(a1-2)Gal(b1-3)[Fuc(a1-4)]GlcNAc(b1-3)[Gal(b1-4)GlcNAc(b1-6)]Gal(b1-4)Glc
Method in brief: as §1

[20] = target: Fuc(a1-2)Gal(b1-4)Glc
Method in brief: as §1

[21] = target: Fuc(a1-2)Gal(b1-4)Glc6S
Method in brief: as §1

[22] = target: Fuc(a1-2)Gal(b1-4)GlcNAc
Method in brief: as §1

[23] = target: Fuc(a1-2)Gal(b1-4)GlcNAc(b1-2)Man(a1-3)[Fuc(a1-2)Gal(b1-4)GlcNAc(b1-2)Man(a1-6)]Man(b1-4)GlcNAc(b1-4)GlcNAc
Method in brief: as §1

[24] = target: Fuc(a1-2)Gal(b1-4)GlcNAc(b1-2)Man(a1-3)[Fuc(a1-2)Gal(b1-4)GlcNAc(b1-2)Man(a1-6)]Man(b1-4)GlcNAc(b1-4)[Fuc(a1-6)]GlcNAc
Method in brief: as §1

[25] = target: Fuc(a1-2)Gal(b1-4)GlcNAc(b1-2)[Fuc(a1-2)Gal(b1-4)GlcNAc(b1-4)]Man(a1-3)[Fuc(a1-2)Gal(b1-4)GlcNAc(b1-2)Man(a1-6)]Man(b1-4)GlcNAc(b1-4)GlcNAc
Method in brief: as §1

[26] = target: Fuc(a1-2)Gal(b1-4)GlcNAc(b1-3)Gal(b1-4)GlcNAc
Method in brief: as §1

[27] = target: Fuc(a1-2)Gal(b1-4)GlcNAc(b1-3)Gal(b1-4)GlcNAc(b1-3)Gal(b1-4)GlcNAc
Method in brief: as §1

[28] = target: Fuc(a1-2)Gal(b1-4)GlcNAc(b1-3)GalNAc
Method in brief: as §1

[29] = target: Fuc(a1-2)Gal(b1-4)GlcNAc(b1-3)[Fuc(a1-2)Gal(b1-4)GlcNAc(b1-6)]GalNAc
Method in brief: as §1

[30] = target: Fuc(a1-2)Gal(b1-4)GlcNAc6S
Method in brief: as §1

B1: GNAT (Pseudomonas aeruginosa), Q9HV14 (protein)
chain: MQLSHRPAETGDLETVAGFPQDRDELFYCYPKAIWPFSVAQLAAAIAERRGSTVAVHDGQVLGFANFYQWQHGDFCALGNMMVAPAARGLGVARYLIGVMENLAREQYKARLMKISCFNANAAGLLLYTQLGYQPRAIAERHDPDGRRVALIQMDKPLEP
glycan array binding signal (z-score) [1]: -0.436
glycan array binding signal (z-score) [2]: -0.402
glycan array binding signal (z-score) [3]: -0.404
glycan array binding signal (z-score) [4]: -0.451
glycan array binding signal (z-score) [5]: -0.267
glycan array binding signal (z-score) [6]: -0.309
glycan array binding signal (z-score) [7]: -0.412
glycan array binding signal (z-score) [8]: -0.4
glycan array binding signal (z-score) [9]: -0.307
glycan array binding signal (z-score) [10]: -0.406
glycan array binding signal (z-score) [11]: -0.447
glycan array binding signal (z-score) [12]: -0.347
glycan array binding signal (z-score) [13]: -0.441
glycan array binding signal (z-score) [14]: -0.366
glycan array binding signal (z-score) [15]: -0.205
glycan array binding signal (z-score) [16]: -0.365
glycan array binding signal (z-score) [17]: 2.54
glycan array binding signal (z-score) [18]: -0.247
glycan array binding signal (z-score) [19]: -0.016
glycan array binding signal (z-score) [20]: -0.339
glycan array binding signal (z-score) [21]: -0.303
glycan array binding signal (z-score) [22]: -0.363
glycan array binding signal (z-score) [23]: -0.246
glycan array binding signal (z-score) [24]: -0.349
glycan array binding signal (z-score) [25]: -0.191
glycan array binding signal (z-score) [26]: -0.45
glycan array binding signal (z-score) [27]: -0.403
glycan array binding signal (z-score) [28]: -0.406
glycan array binding signal (z-score) [29]: 0.212
glycan array binding signal (z-score) [30]: -0.301

From the supplement of paper PMC8728848
